# Assay results published in the supplement of paper PMC7826260.
# This is one part of the list. One pool of 16,384 single-stranded DNAs met each Rep nickase domain in vitro for 1 h at 37 °C with 3 µM enzyme; only the middle of the 90-letter strands is printed. Numbers give uncut DNA relative to the enzyme-free pool, as log2; the lower, the more was cut; hits are not called. Reads are scaled to the total, so uncut sequences can rise above 0 when many others are cut.
# Columns and labels:
# Test in all cases: uncleaved DNA left, log2 of reads against the no-enzyme library (log2 ratio); higher = less cleavage (more negative = more Rep cleavage of the k-mer); sequences stand for … in CTCGTCCG…ACCGGAGA
# [1] = tested on: T1, Rep nickase domain of Muscovy duck circovirus
# T1 sequence (residues 1-111 of Rep, tag left off): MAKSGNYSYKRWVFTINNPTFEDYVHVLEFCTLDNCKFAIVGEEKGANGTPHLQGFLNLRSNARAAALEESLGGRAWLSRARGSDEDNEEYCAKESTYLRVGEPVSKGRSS
# Description: (§1)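 A pool of 90-nt single-stranded DNAs with seven random bases just before the constant AC of the nick site (name = the seven bases) was cut by 3 µM recombinant His6-SUMO-tagged Rep nickase domain (300 nM DNA, 50 mM HEPES pH 8.0, 50 mM NaCl, 1 mM MnCl2, 1 h, 37 °C, three replicates). Uncut DNA was amplified and sequenced.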
# [2] = tested on: T2, Rep nickase domain of banana bunchy top virus
# T2 sequence (residues 1-94 of Rep, tag left off): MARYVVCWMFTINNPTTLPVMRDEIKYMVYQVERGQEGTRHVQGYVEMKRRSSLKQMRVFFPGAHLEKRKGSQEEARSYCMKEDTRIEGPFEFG
# Description: as §1
# [3] = tested on: T3, Rep nickase domain of cabbage leaf curl virus
# T3 sequence (residues 1-116 of Rep, tag left off): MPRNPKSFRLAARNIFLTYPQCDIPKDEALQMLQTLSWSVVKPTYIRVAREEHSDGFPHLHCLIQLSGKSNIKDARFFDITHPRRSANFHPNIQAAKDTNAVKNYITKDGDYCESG
# Description: as §1
# [4] = tested on: T4, Rep nickase domain of chickpea chlorotic dwarf virus
# T4 sequence (residues 1-124 of Rep, tag left off): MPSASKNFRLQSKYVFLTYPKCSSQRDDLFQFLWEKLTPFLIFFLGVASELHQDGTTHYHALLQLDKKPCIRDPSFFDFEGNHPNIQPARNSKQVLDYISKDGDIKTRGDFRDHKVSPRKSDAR
# Description: as §1
# [5] = tested on: T5, Rep nickase domain of faba bean necrotic yellows virus
# T5 sequence (residues 1-98 of Rep, tag left off): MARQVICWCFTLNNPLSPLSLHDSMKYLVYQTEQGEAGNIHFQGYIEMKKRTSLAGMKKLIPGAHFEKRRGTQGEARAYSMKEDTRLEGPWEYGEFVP
# Description: as §1
# [6] = tested on: T6, Rep nickase domain of maize striate mosaic virus
# T6 sequence (residues 1-117 of Rep, tag left off): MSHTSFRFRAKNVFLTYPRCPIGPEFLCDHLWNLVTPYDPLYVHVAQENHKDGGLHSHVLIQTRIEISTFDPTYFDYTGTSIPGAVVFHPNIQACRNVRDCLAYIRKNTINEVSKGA
# Description: as §1
# [7] = tested on: T7, Rep nickase domain of porcine circovirus 2
# T7 sequence (residues 2-116 of Rep, tag left off): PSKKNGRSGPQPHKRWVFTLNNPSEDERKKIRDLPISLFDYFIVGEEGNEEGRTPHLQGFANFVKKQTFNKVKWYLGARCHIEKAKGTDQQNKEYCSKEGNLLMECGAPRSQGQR
# Description: as §1
# [8] = tested on: T8, Rep nickase domain of tomato golden mosaic virus
# T8 sequence (residues 1-124 of Rep, tag left off): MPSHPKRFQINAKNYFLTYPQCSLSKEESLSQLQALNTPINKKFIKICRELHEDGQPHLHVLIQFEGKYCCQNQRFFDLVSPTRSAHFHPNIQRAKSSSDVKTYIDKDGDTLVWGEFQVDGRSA
# Description: as §1
# [9] = tested on: T9, Rep nickase domain of tomato yellow leaf curl virus
# T9 sequence (residues 1-136 of Rep, tag left off): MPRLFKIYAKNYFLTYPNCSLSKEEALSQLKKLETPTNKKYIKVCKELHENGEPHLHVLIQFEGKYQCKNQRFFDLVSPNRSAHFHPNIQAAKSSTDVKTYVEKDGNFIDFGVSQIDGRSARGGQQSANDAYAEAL
# Description: as §1
# [10] = tested on: T10, Rep nickase domain of wheat dwarf virus
# T10 sequence (residues 1-137 of Rep, tag left off): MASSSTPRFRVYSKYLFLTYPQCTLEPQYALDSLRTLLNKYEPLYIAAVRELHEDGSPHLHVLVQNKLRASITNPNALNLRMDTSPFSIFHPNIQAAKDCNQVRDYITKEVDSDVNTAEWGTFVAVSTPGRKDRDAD
# Description: as §1
Sequence,uncleaved DNA left (log2) [1],uncleaved DNA left (log2) [2],uncleaved DNA left (log2) [3],uncleaved DNA left (log2) [4],uncleaved DNA left (log2) [5],uncleaved DNA left (log2) [6],uncleaved DNA left (log2) [7],uncleaved DNA left (log2) [8],uncleaved DNA left (log2) [9],uncleaved DNA left (log2) [10]
GATCCGC,0.183,0.0205,0.0228,0.103,0.0616,-0.398,0.0515,0.0428,0.0377,0.162
GTCTTGA,-0.000802,0.0907,0.304,0.79,-0.0172,1.7,0.11,0.129,0.0592,0.0144
GCAATAT,0.038,0.0433,0.114,-0.134,-0.136,-0.0835,-0.0318,-0.0408,0.0199,0.0635
ACCCCCA,-0.0808,-0.0943,-0.16,-1.05,-0.159,-0.547,-0.205,-0.0815,-0.185,-0.16
CTACAAG,0.0657,-0.0484,-0.72,-0.856,-0.0627,-1.03,0.169,-0.00427,0.12,-0.0874
TGATATA,-0.00097,0.0264,0.14,-0.83,0.0773,0.165,-0.0567,0.0797,0.148,0.0454
CGGACCG,0.0627,0.0901,0.0214,0.398,0.00825,0.138,0.182,0.101,-0.073,0.116
CGGGTCT,0.039,0.134,0.782,1.14,-0.0248,1.89,0.131,0.0509,0.0934,0.144
CGTTTCC,-0.136,-0.0266,0.125,-0.00348,-0.0812,-0.0934,-0.304,-0.131,-0.0561,-0.0499
TCTCCCG,-0.341,-0.145,-0.923,-0.558,-0.124,-1.13,-0.862,-0.228,-0.0608,-0.232
TTAGTCG,-0.118,-0.154,-1.07,-0.298,-0.0246,-1.25,0.0658,-0.199,-0.186,-0.166
CCTCACT,-0.037,-0.103,-0.192,-2.24,-0.088,-0.564,-0.349,0.00432,-0.159,0.00227
GGAGAGC,0.0456,0.119,0.764,1.62,0.0362,1.87,0.122,0.0116,0.0426,0.0964
TAAACAG,0.021,-0.04,-0.891,-1.53,0.0342,-1.27,0.124,0.00296,0.028,-0.00819
CGGTGAT,0.224,0.129,0.401,1.38,-0.0598,1.92,-0.625,0.237,0.0952,0.0984
GACTAAG,0.116,0.0493,-0.575,-0.416,0.0349,-1.17,0.0837,0.0555,0.0776,0.0522
CCGCGGC,-0.174,-0.0531,-0.189,-0.324,-0.0384,-0.56,0.106,-0.0497,-0.041,-0.0768
ACGGACT,-0.0165,-0.122,0.122,-0.105,-0.0817,0.76,-0.0467,0.00809,-0.0906,-0.058
AGCGCTA,-0.031,0.0329,-0.0249,0.487,-0.0115,1.38,-0.0876,0.0823,-0.0044,0.0275
CCAAATA,0.115,0.0711,-0.0792,-1.56,0.0415,-0.477,0.0139,0.0894,0.0296,0.0445

Sequence,uncleaved DNA left (log2) [1],uncleaved DNA left (log2) [2],uncleaved DNA left (log2) [3],uncleaved DNA left (log2) [4],uncleaved DNA left (log2) [5],uncleaved DNA left (log2) [6],uncleaved DNA left (log2) [7],uncleaved DNA left (log2) [8],uncleaved DNA left (log2) [9],uncleaved DNA left (log2) [10]
GAATCGA,0.178,0.0507,0.00563,-0.189,0.148,-0.576,0.134,0.0676,0.0483,0.097
ACGTCGC,-0.0155,-0.0791,-0.675,-0.679,0.0263,-0.925,0.00341,-0.0917,-0.158,-0.234
TGTCTGG,0.0538,-0.0351,0.296,0.526,0.0393,0.668,0.0222,0.0498,-0.0648,0.0447
TCCTGAG,-0.0253,-0.0119,0.022,0.824,-0.0955,0.779,0.0949,0.216,0.146,0.000903
GCTCCGC,0.0459,0.0392,-0.0832,0.068,-0.0797,-0.474,-0.0142,-0.0536,-0.0457,-0.106
AGAGTAA,-0.0491,-0.0173,0.0899,0.241,0.0512,0.0493,-0.256,0.106,0.0144,0.0187
GGTCCTG,-0.143,-0.0885,0.0457,0.693,-0.0685,1.21,0.0154,-0.0599,0.0273,-0.0263
ATCCCAT,-0.0408,0.018,-0.103,-0.585,-0.00543,-0.484,-0.142,-0.089,0.042,-0.0333
CTGGTAG,0.135,0.0419,-0.803,-0.523,0.0709,-0.946,0.212,-0.0311,0.0421,0.0376
AATCCGC,-0.0948,-0.125,-0.615,-0.658,-0.0209,-1.18,-0.0944,-0.243,-0.14,-0.229
CGGAGTC,0.0856,0.172,0.359,0.46,0.167,0.283,0.149,0.0187,0.135,0.163
GTACATG,0.0492,0.0339,0.336,0.724,0.0613,0.738,0.168,-0.0744,0.0478,0.113
CTTTGTC,-0.0673,-0.167,-0.372,-0.602,-0.0383,-1.12,-0.101,-0.182,0.00691,-0.21
AAATAGC,0.155,0.000623,-0.916,-1.14,0.122,-1.44,0.139,-0.0518,0.043,-0.0403
CGAAGCC,0.13,0.0939,0.279,0.684,0.0106,0.656,0.159,0.0569,0.0337,0.0513
CCGACTA,-0.031,-0.076,-0.135,0.18,-0.0251,1.04,-0.0306,-0.0641,-0.201,-0.00117
TCAATCG,0.0563,0.00201,-0.841,-0.693,0.0175,-1.22,0.18,0.117,0.114,0.0427
TGGCTAC,-0.0294,0.00428,0.359,0.521,0.00212,1.4,0.0113,0.0866,-0.0336,0.096
ACGCGTA,0.0405,-0.0178,-0.578,-1.01,0.0694,-1.01,0.132,0.115,0.103,0.0104
TGAAGCC,0.000109,-0.0479,-0.037,-0.403,-0.0351,-0.514,0.0904,-0.0691,-0.0113,-0.0743

Sequence,uncleaved DNA left (log2) [1],uncleaved DNA left (log2) [2],uncleaved DNA left (log2) [3],uncleaved DNA left (log2) [4],uncleaved DNA left (log2) [5],uncleaved DNA left (log2) [6],uncleaved DNA left (log2) [7],uncleaved DNA left (log2) [8],uncleaved DNA left (log2) [9],uncleaved DNA left (log2) [10]
GCTTGTT,-2.1,-0.357,0.0353,-0.0936,0.0529,0.473,-2.67,0.0129,0.132,-0.215
AATTGCA,-0.0722,-0.0362,-0.552,0.0214,0.174,-0.5,-0.201,0.00518,0.215,0.0343
ATACTTA,-0.231,-0.153,-0.168,-1.89,-0.113,-0.515,-0.23,-0.0943,-0.155,-0.127
GGACTGT,-0.041,0.0172,0.55,1.59,0.0887,2.08,0.15,0.0217,0.0295,0.136
TCGTGGG,-0.0297,-0.0447,-0.219,-0.196,0.153,-0.762,0.293,0.0964,0.023,0.0111
TGCTGCT,-0.622,-0.0536,-0.298,-0.867,0.0795,-0.781,-1.84,-0.0414,-0.0589,-0.144
CCAACCC,-0.344,-0.0119,-0.135,-1.67,-0.0683,-0.513,-0.969,-0.0866,-0.0861,-0.0521
ATCTTGG,0.068,-0.0376,-0.318,-0.251,0.0141,-1.08,0.107,-0.00855,0.0418,-0.0209
GCTACTG,0.113,0.102,0.021,0.634,0.074,1.61,0.0948,0.128,0.0247,0.124
CAATACA,-0.173,0.177,-0.935,-0.745,0.0201,-0.503,-1,-0.00167,0.0344,-0.294
TTTGGCC,0.015,0.0169,0.0161,-0.0631,0.0142,-0.684,0.057,0.0704,0.0137,-0.105
TGCCCAC,-0.13,0.051,0.176,0.425,-0.0467,0.616,-0.0538,-0.151,-0.000608,-0.00127
TGCATAA,-0.021,0.0986,-0.149,-0.229,0.0669,-0.639,-0.0658,0.0188,0.041,0.137
AGAAGGG,0.072,-0.0139,-0.218,-0.131,0.0395,-0.725,0.254,0.0968,0.0899,-0.0182
AGACAGG,0.104,0.00747,0.187,0.855,0.00982,0.337,0.248,0.187,0.0245,0.0525
CTCTCGT,0.131,-0.0669,-0.473,-0.799,-0.0456,-0.901,-0.212,-0.0629,0.00469,-0.161
GGAGTCC,-0.0503,0.105,0.629,1.25,-0.0333,1.84,-0.0116,0.00221,0.0668,0.24
AGACTTT,0.0727,-0.0693,0.352,0.156,-0.0324,1.53,-0.172,0.00179,0.01,0.0326
